Reference: publication PMC4336329 (PLoS ONE, 2015)
Hit rate of the full screen: of about 310,000 compounds, about 14,000 (4.5%) showed an effect of 50% or more. Effects have a minus sign here. The list shows a part of the results.

Biological target: human ether-à-go-go-related gene (hERG) potassium channel (human, UniProt Q12809)
Assay: primary screen, population patch clamp on CHO cells stably expressing hERG
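Also: peak tail current of the secondary pulse compared with the same well before compound.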

Chain of human ether-à-go-go-related gene (hERG) potassium channel (Q12809 whole entry, looked up): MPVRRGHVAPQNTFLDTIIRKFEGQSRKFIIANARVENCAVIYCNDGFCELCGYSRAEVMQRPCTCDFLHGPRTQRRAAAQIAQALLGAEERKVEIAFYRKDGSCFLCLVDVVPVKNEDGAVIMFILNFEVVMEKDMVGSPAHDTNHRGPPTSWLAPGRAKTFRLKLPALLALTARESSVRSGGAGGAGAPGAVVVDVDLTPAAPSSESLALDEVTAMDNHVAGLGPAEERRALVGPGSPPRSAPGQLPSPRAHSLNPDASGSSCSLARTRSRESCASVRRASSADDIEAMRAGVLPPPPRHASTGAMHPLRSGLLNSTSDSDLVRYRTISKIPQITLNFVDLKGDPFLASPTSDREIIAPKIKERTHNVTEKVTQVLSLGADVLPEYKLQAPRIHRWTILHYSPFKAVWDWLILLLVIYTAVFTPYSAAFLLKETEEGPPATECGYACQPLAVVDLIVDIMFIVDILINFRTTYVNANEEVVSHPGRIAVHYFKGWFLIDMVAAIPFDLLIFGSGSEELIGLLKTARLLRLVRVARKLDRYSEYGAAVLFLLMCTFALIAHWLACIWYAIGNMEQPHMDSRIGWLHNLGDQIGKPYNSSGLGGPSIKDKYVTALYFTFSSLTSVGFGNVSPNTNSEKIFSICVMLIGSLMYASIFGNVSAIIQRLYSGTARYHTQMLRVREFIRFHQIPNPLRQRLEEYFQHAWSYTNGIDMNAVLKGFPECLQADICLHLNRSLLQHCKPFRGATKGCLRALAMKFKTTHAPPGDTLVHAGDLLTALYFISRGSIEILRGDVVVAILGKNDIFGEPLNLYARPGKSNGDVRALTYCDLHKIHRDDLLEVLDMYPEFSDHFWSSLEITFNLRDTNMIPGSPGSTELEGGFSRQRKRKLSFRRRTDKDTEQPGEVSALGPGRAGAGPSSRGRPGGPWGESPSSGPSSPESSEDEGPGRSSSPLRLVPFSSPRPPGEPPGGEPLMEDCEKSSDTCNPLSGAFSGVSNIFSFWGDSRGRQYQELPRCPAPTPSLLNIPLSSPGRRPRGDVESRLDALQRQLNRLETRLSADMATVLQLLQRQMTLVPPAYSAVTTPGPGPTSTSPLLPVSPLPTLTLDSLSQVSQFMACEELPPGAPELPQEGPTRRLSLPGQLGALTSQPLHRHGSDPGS

SMILES	hERG current change (%, negative = inhibition) at 10uM
O=C1N[C@@H](Cc2ccccc2)C(=O)N2[C@H]3Nc4ccccc4[C@@]3([C@]34C[C@H]5C(=O)N[C@@H](Cc6ccccc6)C(=O)N5[C@H]3Nc3ccccc34)C[C@@H]12	11.3%
CCc1nc(SCC(=O)c2cc(C)ccc2C)n[nH]1	3.15%
O=C(c1ccc2c3c(cccc13)CC2)C1CCCN(Cc2ccc(OCCO)cc2)C1 (centres unmarked)	-70.4%
Cc1oc(-c2ccccc2)cc1C(=O)Nc1ccc2ccccc2c1	11.9%
COc1ccc(NC(=O)CSc2nnnn2C2CC2)cc1S(=O)(=O)N1CCOCC1	-7.49%
Cl.Clc1ccc2sc(C3CCNCC3)nc2c1	9.77%
O=C(O)c1ccccc1-c1ccccc1C(=O)Nc1ccc(F)cc1	4.38%
Nc1ccc(Oc2ccc(F)cc2)nc1	-1.88%
O=C(COc1ccc(Br)cc1Cl)NC(=S)N1CCc2ccccc21	21.7%
Cc1c(CCC(=O)O)c(=O)oc2cc3occ(-c4ccc(Br)cc4)c3cc12	22.1%
O=C(NCc1ccc(F)cc1)C1CCCN(C(=O)Nc2ccc(F)cc2)C1 (centres unmarked)	-23.7%
CCOC(=O)c1[nH]c(C)c(/C(O)=C2\C(=O)C(=O)N(CCN3CCOCC3)C2c2cccs2)c1C (centres unmarked)	-3.77%
CC(=O)N1CCOc2ccc(S(=O)(=O)N3CCC(C(=O)Nc4ccccc4F)CC3)cc21	5.31%
COc1ccc(/C=N/NS(C)(=O)=O)c(OC)c1	-0.814%
COCCn1nc2cc(C(=O)NCC34CC5CC(CC(C5)C3)C4)ccc2c1OC	-9.01%
CCCSc1nc2c3c(sc2c(=O)[nH]1)CC(C)(CC)OC3 (centres unmarked)	4.12%
CN(C[C@H](Cc1ccccc1)N(C[C@H](Cc1ccccc1)N(CCC(C)(C)C)N=O)N=O)N=O.[Na+]	13.9%
CC(C)OCCCNC(=S)Nc1ccc(S(N)(=O)=O)cc1	21.3%
CN(CC(=O)Nc1ccc(F)cc1)C(=O)Cc1ccsc1	-0.977%
Cc1cc(Br)cnc1NC(=S)Nc1ccc(F)cc1F	3.75%
CCOC(=O)N1CCN(CC(=O)N2CCC(C(N)=O)CC2)CC1	4.42%
O=C(CN1CCCCCC1)Nc1ccc(S(=O)(=O)N2CCCCC2)cc1	-38.7%

SMILES	hERG current change (%, negative = inhibition) at 10uM
O=C(CN1CCN(c2ccccc2F)CC1)c1ccc(O)cc1O	14.2%
O=C(Nc1ccc(Cl)c([N+](=O)[O-])c1)c1cnccn1	-10.4%
CC(=O)O.COc1ccc(C2Nc3ccccc3C(=O)N2Cc2ccco2)cc1CN1C(=O)c2ccccc2C1=O (centres unmarked)	-11.4%
CCOc1cc(N2CCOCC2)c(OCC)cc1NC(=O)CSc1ccccc1C(=O)O	5.72%
CC1(C)CC(=O)c2sc(NC(=O)c3ccc4ncsc4c3)nc2C1	3.42%
Cc1ccc(C(=O)NC(=S)NCc2cccnc2)c(C)c1	4.09%
CCc1c(C(=O)NCc2ccc3c(c2)OCO3)[nH]c(C)c1C(C)=O	-6.95%
COc1ccc(-c2nn(-c3ccccc3)cc2CN2CCCO2)c(F)c1	3.95%
Cc1oc(/N=C/c2ccccc2)c(C#N)c1C	28.2%
Cc1noc(C)c1C(=O)NCCC1=CCCCC1	-3.97%
Cc1nnnn1/C(=C\c1ccccc1)C(=O)OCC(=O)Nc1cccc(S(=O)(=O)N(C)C)c1	-26.3%
COc1cccc(CNC(=O)CSc2cc(=O)n(C)c3ccccc23)c1	2.52%
CC(=O)c1oc2ccccc2c1NC(=O)CN1CCCCC1.Cl	7.19%
Cc1ccc(CN2CC34C=CC(O3)C(C(=O)NCc3ccc5c(c3)OCO5)C4C2=O)cc1 (centres unmarked)	-31.6%
CCn1c(SCC(=O)NNC(=O)c2ccc(OC)cc2)nnc1-c1ccco1	19.5%
CCCCCC(=O)Nc1c(-c2cccs2)c(=O)c2ccccc2n1C	-12%
COCCCN1C(=O)C(=O)/C(=C(/O)c2ccc(OC(C)C)cc2)C1c1ccc(O)c(OC)c1 (centres unmarked)	3.66%
NC(=O)c1nsc(C(=O)N(Cc2cccnc2)C(C(=O)NCc2ccccc2)c2ccc(O)cc2)c1N (centres unmarked)	10.3%
Cn1c(=O)c(C(=O)COC(=O)c2cc(C3CC3)nc3ccccc23)c(N)n(Cc2ccccc2)c1=O	13.8%
Cc1cc(NS(=O)(=O)c2ccc(NC(=O)CSc3nc4ncc(Br)cc4[nH]3)cc2)nc(C)n1	20.8%
CC(=O)Nc1ccc(NC(=S)NC(=O)/C=C/c2ccccc2)cc1	9.8%
CC1CCC(NC(=O)c2ccc(CS(=O)(=O)Cc3ccccc3F)o2)CC1 (centres unmarked)	-36.5%

SMILES	hERG current change (%, negative = inhibition) at 10uM
O=C(C1=C[C@H](c2csc3ccccc23)C[C@H](OCc2ccc(CO)cc2)O1)N1CCCCCCC1	-15.1%
COc1cc(NC(=O)CSc2nnc(NC(C)C)s2)cc(OC)c1OC	15%
CCCc1nc(C(C)(C)O)c(C(=O)O)n1Cc1ccc(-c2ccccc2-c2nn[nH]n2)cc1	2.56%
CN1CCN(c2ccc(NC(=O)c3cccs3)cc2)CC1	18%
Cc1cc(C)cc(NC(=O)CSc2nnc(NC(=O)C3CC3)s2)c1	14.5%
O=C(Nc1cc(S(=O)(=O)N2CCOCC2)ccc1N1CCOCC1)c1cnccn1	-42.7%
O=c1[nH]c(=O)c2nc3c4ccccc4c4ccccc4c3nc2[nH]1	4.75%
COc1ccc(CCn2c(SCCN3CCCCC3)nc3ccccc3c2=O)cc1OC	-53.3%
O=C(COC(=O)Cc1ccc(F)cc1)NC1CCCCC1	12.2%
CN(CCCC(=O)NCc1ccccc1)S(=O)(=O)c1ccc([N+](=O)[O-])cc1	-65.6%
CCOc1ccc(CCNC(=O)c2cc(-c3ccccc3)c(N3CCOCC3)s2)cc1	0.333%
CC1(C)Oc2cc(N)c([N+](=O)[O-])cc2O1	9.56%
CCC1CCCCN1Cc1nc2c(c(=O)n(C)c(=O)n2C)n1Cc1ccccc1 (centres unmarked)	-36.6%
CCOC(=O)c1c(S(=O)(=O)N2CCCC(C(=O)Nc3cccc(C)n3)C2)c(C)n(C)c1C (centres unmarked)	-24.4%
CC1Nc2ccc(C(=O)NC3CCCCC3)cc2NC1=O (centres unmarked)	25.7%
C/C(=N\N1CCCCCC1)c1c(O)n(-c2ccc(C)cc2)c(=O)[nH]c1=O	7.88%
CCOc1ccc(C(C)=O)cc1CSC(=N)N.Cl	16.2%
Cc1ccccc1CNC(=O)CN(c1cccc([N+](=O)[O-])c1)S(C)(=O)=O	6.08%
CCOc1ccccc1NC(=O)c1cc(S(=O)(=O)N2CCOCC2)ccc1C	-7.75%
CCN1CCN(C(CNS(=O)(=O)c2ccc(F)cc2)c2cccnc2)CC1 (centres unmarked)	-20.5%
CCC(C)NC(=O)C1CC(c2cccc(OC)c2)=NO1 (centres unmarked)	8.15%
CCn1c(=O)cc(SCC(=O)NCCC2=CCCCC2)c2ccccc21	-6.46%

SMILES	hERG current change (%, negative = inhibition) at 10uM
COc1ccc(CNCc2cccc3ccccc23)cc1.O=C(O)C(=O)O	-47.1%
COC(=O)c1onc(-c2c(C)cc(C)cc2C)c1C(=O)OC	11.8%
O=c1c2cc(NC(=S)N3CCC(N4CCCCC4)CC3)ccc2nc2n1CCCCC2	-3.94%
COc1cccc(NC(=O)CSc2nnc(CN3CCOCC3)n2C)c1	-6.64%
C=CCn1c(Oc2ccccc2)nc2c1c(=O)n(C)c(=O)n2C	5%
Nc1c(C(=O)O)sc2nc(-c3ccccc3)c3c(c12)CCCC3	11.6%
Cn1c(=O)c2c(nc(NC3CCCC3)n2C)n(C)c1=O	3.12%
COc1cc(OC)c(C2=NOC(C(=O)Nc3cc(C)nn3-c3ccccc3)C2)cc1Cl (centres unmarked)	-24.5%
CCOC(=O)C1=C(c2ccccc2)NC(SCC(N)=O)=C(C#N)C1c1cccnc1 (centres unmarked)	-9.62%
Cc1ccc(C(=O)CCC(=O)Nc2ccccc2C)cc1C	15%
Cc1ccccc1C(=O)N1CCc2cc(-c3nc(NC(=O)Cc4ccc5c(c4)OCO5)sc3C)ccc21	3.97%
COc1ccc(CNC(=O)C2CC(C)=C(C)CC2C(=O)O)cc1 (centres unmarked)	1.08%
CC1CCCC(C)N1C(=O)CN1C(=O)c2ccccc2S1(=O)=O (centres unmarked)	3.3%
CN(C)CCCNC1=CC(=O)OC12CCCCC2	-5.19%
CC1CN(S(=O)(=O)c2cccc(-c3cn4ccccc4n3)c2)CC(C)O1 (centres unmarked)	-11%
Nc1nc(-c2ccc(F)cc2)cc(C(F)(F)F)n1	18.7%
O=C(Nc1ccc(NC(=O)c2cccs2)cn1)c1ccccc1	11.7%
O=C(COC(=O)/C=C/c1ccccc1[N+](=O)[O-])NC1CC1	13.1%
CNC(=S)Nc1cccc(Cl)c1C	13.9%
Cc1cc2oc(=O)cc(CN(C)Cc3cccc(F)c3)c2cc1Cl	10.8%
